PubChem BioAssay AID463173 (ICCB-Longwood Screening Facility, Harvard Medical School, 2010)
The campaign covered roughly 52,000 compounds. About 4,300 (8.3%) were called active. No stated cut-off is given here; in the data, active means survival mostly below about 52% (no sharp cut-off); inactive means mostly above about 56%. The list shows a part of the results.

These molecules were tested on DeltatarO mutant (assay: growth inhibition of S. aureus wild type versus tarO mutant, primary screen, teichoic acid synthesis inhibitors, RN4220, OD600 (AID 463173)). Conditions: OD600, 18 h, hits give low values, screened at 18.75 µg/mL (by protocol).
For CC(=O)N(C)c1ccc(N=Nc2c(-c3ccccc3)[nH][nH]c2=O)cc1, the survival was inactive: 76%. COc1ccc(Cl)cc1NC(=O)N1CC(=O)Nc2sc3c(c2C1c1ccccc1)CCCC3 (centres undefined) was tested, and the survival was inactive: 76%. In the case of COc1ccccc1NC(=O)CSC1=Nc2ccccc2N=C(c2ccc(F)cc2)C1, the survival is reported as inactive: 89%. Cc1cccc(-n2c3nc(=O)[nH]c(=O)c-3cc3c(C)nn(-c4ccccc4)c32)c1C was tested, and the survival was inactive: 83%. With CC(C)NC(=O)/C=C/c1ccc2c(c1)OCO2 the survival was inactive: 95%. For O=C(Nc1ccccc1)c1cn(-c2ccccc2)nc1-c1ccccc1, the survival was inactive: 85%. For Cc1cccc(C)c1NC(=O)CSCc1cnn(-c2ccccc2)c1-n1cccc1, the survival was inactive: 54%. COc1ccccc1Cn1c(CNS(=O)(=O)c2cccc([N+](=O)[O-])c2)nc2cccnc21 was tested, and the survival was inactive: 81%. With CCC(Sc1nc2ccccc2c2nc(CCc3c(C)n[nH]c3C)nn12)C(=O)Nc1ccccc1F (centres undefined) the survival was inactive: 86%. COc1ccc(C)cc1NC(=O)CCn1nc(C)cc1C was tested, and the survival was inactive: 112%. COc1cc(CNc2ccc3[nH]c(=O)[nH]c3c2)cc(Cl)c1OCc1ccccc1F was tested, and the survival was inactive: 78%. In the case of Cc1ccc(-c2nonc2NC(=O)c2ccco2)cc1C, the survival is reported as inactive: 90%. Cc1oc(C)c2c(=O)cc(-c3ccc4c(c3)OCO4)cc(OC(=O)c3ccc(Cl)cc3)c12 was tested, and the survival was inactive: 103%. In the case of Cc1ccc(-c2nn(CC(=O)Nc3cccc(C(F)(F)F)c3)c(=O)c3ccccc23)cc1, the survival is reported as active: 31%. With Cc1ccc(CNC(=O)c2ccc3c(c2)N(Cc2cccc(C)c2)C(=O)CS3)cc1 the survival was active: 46%. For O=C(O)C1C2C=CC(C2)C1C(=O)NCCCN1CCOCC1 (centres undefined), the survival was inactive: 117%. For CC1CCN(CC(C)OC(=O)c2ccc3c(c2)OCCO3)CC1 (centres undefined), the survival was inactive: 99%. O=C(CN1CCCC1)Nc1nc(-c2ccc3c(c2)CCN3C(=O)C2CC2)cs1 was tested, and the survival was inactive: 104%. With COc1ccc(CNC(=O)c2cc3cccc(OC)c3oc2=O)cc1 the survival was inactive: 65%. With CCN(CC)C(=O)C1=C(C)Nc2nc3ccccc3n2C1c1cccc(Cl)c1 (centres undefined) the survival was inactive: 65%. With COC(=O)c1ccc(NC(=O)CSc2n[nH]c(CC(C)C)n2)cc1 the survival was active: 36%. With Cc1cccc(OC(=O)c2cc(-c3ccc(Cl)cc3)on2)c1C the survival was inactive: 106%. In the case of N#Cc1c(N)nc(SCC(=O)c2cc3ccccc3oc2=O)c(C#N)c1-c1ccc(O)cc1, the survival is reported as inactive: 90%. With COc1ccc(CNC(=O)c2cc(C)nc3c2c(C)nn3-c2cccc(Cl)c2C)cc1 the survival was inactive: 88%. For COc1cccc(NC(=O)C(CCSC)NC(=O)C2CCC(C)CC2)c1 (centres undefined), the survival was inactive: 73%. In the case of CC(C)CN(CCCNC(=O)c1cn(C)c2ccc(S(=O)(=O)N(C)C3CCCCC3)cc2c1=O)CC(C)C, the survival is reported as inactive: 104%. Nc1nc2c(c(=O)[nH]1)CCC2 was tested, and the survival was inactive: 71%. CCn1cc(C(=O)N2CCN(c3ccc(OC)cc3)CC2)c(=O)c2cc(S(=O)(=O)N(C)C3CCCCC3)ccc21 was tested, and the survival was inactive: 122%. COc1cccc(CNC(=O)c2nn(C)c3c2CS(=O)(=O)c2ccccc2-3)c1 was tested, and the survival was inactive: 74%. c1cc(CNc2ccc3c(c2)OCCO3)ccn1 was tested, and the survival was inactive: 100%. In the case of COc1ccc(NC(=O)CSC2=Nc3ccccc3C3=NC(CCC(=O)NCCc4ccccc4)C(=O)N23)c(OC)c1 (centres undefined), the survival is reported as inactive: 89%. O=C(NCc1ccco1)c1ccc2c(c1)N(Cc1ccccc1F)C(=O)c1ccccc1S2=O (centres undefined) was tested, and the survival was inactive: 90%. For CCOC(=O)c1c(NC(=O)Cn2nnc3ccccc32)sc2c1CCC(C)C2 (centres undefined), the survival was inactive: 64%. With Cc1nn(CC(=O)Nc2cccc(C(F)(F)F)c2)c(=O)c2nn(-c3ccccc3)c(C)c12 the survival was inactive: 75%. In the case of CC(C)CSc1oc(-c2ccco2)nc1S(=O)(=O)c1ccc(Br)cc1, the survival is reported as active: 33%. In the case of CCOc1ccc(-n2c(=O)c3c(C)c(C)sc3n(Cc3cc(=O)n4cc(Cl)ccc4n3)c2=O)cc1, the survival is reported as inactive: 69%. For CN(C(=O)CSc1nc2ccccc2n1Cc1cccc(C(F)(F)F)c1)c1ccccc1, the survival was inactive: 66%. In the case of O=C(COC(=O)c1cc(-c2ccccc2)nc2c(Cl)cccc12)c1ccc(F)cc1, the survival is reported as inactive: 74%. For O=C(NCCc1csc(-c2ccc(F)cc2)n1)c1c(F)cccc1Cl, the survival was inactive: 122%. With COc1ccc(C)cc1NC(=O)CC(=O)Nc1ccc2nc3n(c(=O)c2c1)CCCCC3 the survival was inactive: 89%. CC1(C)NC(=O)N(CC(O)CN(Cc2ccccc2)Cc2ccccc2)C1=O (centres undefined) was tested, and the survival was inactive: 89%. In the case of CCOc1ccc(S(=O)(=O)N(C(=O)c2ccncc2)c2ccc3oc(C)c(C(=O)OC)c3c2)cc1, the survival is reported as inactive: 168%. With CCOc1ccc(C2=CC(c3cc(Br)ccc3F)n3ncnc3N2)cc1Cl (centres undefined) the survival was inactive: 76%. For COc1ccc(-c2noc(CSc3nnc(C)n3-c3ccc(F)cc3)n2)cc1, the survival was inactive: 53%. In the case of COc1ccc(NC(=O)C(c2ccccc2)N(C)C(=O)/C=C\c2ccc3c(c2)OCO3)cc1 (centres undefined), the survival is reported as inactive: 65%. In the case of Cc1cn2c(=O)c(S(=O)(=O)Nc3ccc(OC(F)(F)F)cc3)c(C)nc2s1, the survival is reported as inactive: 109%. In the case of CCOc1ccc(C(=O)Nc2ccc3nc(Nc4cccc(C(F)(F)F)c4)cc(C)c3c2)cc1OCC, the survival is reported as inactive: 83%. In the case of COc1ccc(C(CC(=O)Nc2cc(Cl)c(OC)cc2OC)N2Cc3ccccc3C2=O)cc1 (centres undefined), the survival is reported as active: 0%. COc1ccc(-c2c(C)nn3c(C(F)(F)F)cc(-c4ccc(C)cc4)nc23)cc1 was tested, and the survival was inactive: 82%. For O=C(COc1ccc(S(=O)(=O)NCc2ccccc2)cc1Cl)N1CCOCC1, the survival was inactive: 78%. COc1ccc(CNC(=O)Cn2c(=O)n3nc(-c4ccc(OC)cc4)nc3c3ccccc32)cc1 was tested, and the survival was inactive: 67%. For CC(=O)c1cccc(NS(=O)(=O)c2ccc3[nH]c4c(c3c2)CCCCC4)c1, the survival was inactive: 87%. In the case of C=CCNC(=S)/N=c1\sccn1C, the survival is reported as inactive: 96%. With Cc1ccccc1NS(=O)(=O)c1ccc2[nH]cc(C(=O)NCCc3ccccc3)c(=O)c2c1 the survival was inactive: 95%. With Cc1ccc2cc(C#N)c(SCC(=O)Nc3ccccc3N3CCOCC3)nc2c1C the survival was inactive: 83%. In the case of Cc1ccccc1OCC(=O)Nc1c(C(=O)Nc2ccccc2F)oc2ccccc12, the survival is reported as inactive: 130%. For CCOc1ccc(NC(=O)N2CC3CCCN3c3ccccc32)cc1 (centres undefined), the survival was inactive: 91%. With CC(=O)NNc1ncnc2c1cnn2-c1ccccc1 the survival was active: 46%. In the case of Cc1ccc(F)cc1NC(=O)CSc1nc(-c2cccs2)cc(C(F)(F)F)n1, the survival is reported as inactive: 68%. For CCOc1ccc(NC(=O)C(CC)n2nc(C)c3c(C)n(-c4ccccc4)nc3c2=O)cc1 (centres undefined), the survival was inactive: 92%. For Cc1ccc(NC(=O)CN2C(=O)CC(c3ccco3)Sc3ccccc32)cc1Cl (centres undefined), the survival was inactive: 86%. In the case of O=C1OC2(CCCC2)OC(=O)C1=CNc1ccccc1, the survival is reported as inactive: 96%. In the case of COc1ccc(-c2csc(NC(=O)C(C)C)n2)cc1, the survival is reported as inactive: 84%. In the case of COc1ccc(NC(=O)c2oc3ccccc3c2NC(=O)c2cc3ccccc3o2)c(OC)c1, the survival is reported as inactive: 72%. With CCCCc1ccc(NC(=O)CSc2nc3ccccc3nc2N2CCCCC2)cc1 the survival was active: 30%. In the case of CCOC(=O)c1ccc(NC(=O)CS(=O)(=O)Cc2nc(-c3ccc(C)cc3)oc2C)cc1, the survival is reported as inactive: 95%. For CCCNC(=O)CCc1c(C)nc2nc(CNC(=O)c3ccccc3)nn2c1C, the survival was inactive: 89%. For COC(=O)c1c(-c2ccc(Cl)cc2)noc1N1CCN(c2ccc(C(C)=O)cc2)CC1, the survival was inactive: 81%. COc1ccc(-c2csc(C)n2)cc1 was tested, and the survival was inactive: 75%. In the case of Cc1ccc(C(=O)O)cc1NC(=O)c1nsc2ccccc12, the survival is reported as inactive: 103%. COc1ccc(CCNC(=O)CN2C(=O)COc3ccc(S(=O)(=O)N4CCCC4)cc32)cc1OC was tested, and the survival was inactive: 90%. For Cc1cc(Cl)ccc1NC(=O)CSc1nc2c(c(=O)[nH]1)CCC2, the survival was inactive: 80%. In the case of C/C=N/NC(=O)CSc1nc2ccccc2s1, the survival is reported as inactive: 96%. COC(=O)c1sc(N2C(=O)c3oc4ccc(C)cc4c(=O)c3C2c2ccc(OC)cc2)nc1C (centres undefined) was tested, and the survival was inactive: 179%. In the case of CCCOc1ccc(Oc2nc(NC)nc(N3CCOCC3)n2)nn1, the survival is reported as inactive: 99%. Cc1ccc(NC(=O)C(=O)NCC(c2cccnc2)N2CCN(Cc3ccccc3)CC2)cc1Cl (centres undefined) was tested, and the survival was inactive: 72%. With COc1cc(OC)c(NC(=O)Nc2ccc3c(c2)N(C)C(=O)c2ccccc2S3)cc1Cl the survival was inactive: 98%. Cc1ccc(-c2onc(C)c2C)cc1S(=O)(=O)N1CCN(c2ccccc2F)CC1 was tested, and the survival was inactive: 80%. For C=CCNC(=O)c1cc2n(n1)C(C(F)(F)F)CC(c1ccco1)N2 (centres undefined), the survival was inactive: 80%. With COc1cc(OC)cc(-n2c(=O)c3sccc3n(Cc3ccc(F)cc3)c2=O)c1 the survival was inactive: 160%. In the case of COc1cc(C(CC(=O)NCc2ccccc2Cl)N2Cc3ccccc3C2=O)cc(OC)c1OC (centres undefined), the survival is reported as inactive: 73%. For COc1cccc(NC(=O)CCNC(=O)Cn2cnc3ccccc3c2=O)c1, the survival was inactive: 83%. In the case of CCn1c2ccccc2c2cc(CN3CCN(Cc4cccc(Cl)c4)CC3)ccc21, the survival is reported as active: -1%. CCOc1ccccc1CNC(=O)c1ccc(-n2c(C)cc3c2CCC(C)C3)cc1 (centres undefined) was tested, and the survival was inactive: 90%. COC(=O)c1ccccc1NC(=O)CCCn1nc(C)c2c(C)n(-c3ccccc3)nc2c1=O was tested, and the survival was inactive: 102%. COc1ccc(CNC(=O)c2ccc3c(c2)nc2n3CCCCC2)cc1 was tested, and the survival was inactive: 89%. With Cc1ccc(NS(=O)(=O)c2ccc3c(c2)N(C)C(=O)CC(=O)N3C)cc1Cl the survival was inactive: 72%. Cc1ccc(-n2c(=O)c3ccc(C(=O)NCc4ccco4)cc3n(CC(=O)Nc3ccc(C)c(F)c3)c2=O)cc1 was tested, and the survival was inactive: 84%. In the case of CCC1CN(C(=O)N2CCC(C(=O)N3CCN(c4ccccc4)CC3)CC2)c2ccccc2O1 (centres undefined), the survival is reported as inactive: 66%.
